For four molecules, binding results are on record in paper PMC3342958, “IDN2 and Its Paralogs Form a Complex Required for RNA–Directed DNA Methylation”.

By UniProt entry, the sequences of proteins in these tests, tags left out.
UniProt Q94A79: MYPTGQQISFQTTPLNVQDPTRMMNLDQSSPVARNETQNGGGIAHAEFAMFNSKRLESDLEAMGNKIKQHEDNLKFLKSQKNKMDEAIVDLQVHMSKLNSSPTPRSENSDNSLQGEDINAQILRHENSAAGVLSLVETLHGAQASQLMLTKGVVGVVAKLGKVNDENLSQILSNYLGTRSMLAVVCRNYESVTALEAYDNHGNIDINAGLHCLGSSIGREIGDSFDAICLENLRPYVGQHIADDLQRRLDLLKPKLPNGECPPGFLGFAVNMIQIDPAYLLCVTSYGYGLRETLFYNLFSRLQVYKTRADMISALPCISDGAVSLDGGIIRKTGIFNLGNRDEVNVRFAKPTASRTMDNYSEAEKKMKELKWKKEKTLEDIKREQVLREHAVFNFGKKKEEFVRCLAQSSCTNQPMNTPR

Results are given in words; binding and its absence hold for the method and conditions named. For some of these results: Binding seen in cells or lysates may run through a third protein. Tags and fused reporters may be left off the sequences shown. Some binding calls cover weakened binding; strength is not graded here.

In assay [1] the target is T1, IDN2-6xMyc (Arabidopsis thaliana) (UniProt Q8VZ79).
T1 sequence: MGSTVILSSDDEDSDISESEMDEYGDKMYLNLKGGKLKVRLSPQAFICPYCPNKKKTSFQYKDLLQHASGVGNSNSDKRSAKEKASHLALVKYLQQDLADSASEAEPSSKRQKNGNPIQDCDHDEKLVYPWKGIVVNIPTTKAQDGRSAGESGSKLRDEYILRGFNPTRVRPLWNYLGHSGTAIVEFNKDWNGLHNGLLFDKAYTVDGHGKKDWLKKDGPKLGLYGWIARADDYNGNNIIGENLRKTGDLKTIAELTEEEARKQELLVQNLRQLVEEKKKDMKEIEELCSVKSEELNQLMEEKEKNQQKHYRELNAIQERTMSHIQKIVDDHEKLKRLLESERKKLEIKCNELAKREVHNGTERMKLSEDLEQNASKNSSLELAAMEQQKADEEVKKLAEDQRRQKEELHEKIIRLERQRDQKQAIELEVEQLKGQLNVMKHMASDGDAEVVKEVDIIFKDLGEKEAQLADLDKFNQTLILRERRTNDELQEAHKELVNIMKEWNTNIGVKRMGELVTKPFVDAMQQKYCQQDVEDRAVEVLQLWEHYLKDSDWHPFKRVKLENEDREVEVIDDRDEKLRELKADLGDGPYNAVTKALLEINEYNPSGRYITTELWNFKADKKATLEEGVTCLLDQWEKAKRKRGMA
Put plainly: co-IP; affinity purification with the Myc antibody from extracts of IDN2-6xMyc transgenic plants in ros1idn2-4; co-purified proteins tested by western blotting with the endogenous DMS3 antibody. (In general: Immunoblotting shows a protein as a band on a membrane.)

Assay [2] deals with T2, IDN2E600Q, yeast two-hybrid bait (Arabidopsis thaliana) (UniProt Q8VZ79).
T2 sequence: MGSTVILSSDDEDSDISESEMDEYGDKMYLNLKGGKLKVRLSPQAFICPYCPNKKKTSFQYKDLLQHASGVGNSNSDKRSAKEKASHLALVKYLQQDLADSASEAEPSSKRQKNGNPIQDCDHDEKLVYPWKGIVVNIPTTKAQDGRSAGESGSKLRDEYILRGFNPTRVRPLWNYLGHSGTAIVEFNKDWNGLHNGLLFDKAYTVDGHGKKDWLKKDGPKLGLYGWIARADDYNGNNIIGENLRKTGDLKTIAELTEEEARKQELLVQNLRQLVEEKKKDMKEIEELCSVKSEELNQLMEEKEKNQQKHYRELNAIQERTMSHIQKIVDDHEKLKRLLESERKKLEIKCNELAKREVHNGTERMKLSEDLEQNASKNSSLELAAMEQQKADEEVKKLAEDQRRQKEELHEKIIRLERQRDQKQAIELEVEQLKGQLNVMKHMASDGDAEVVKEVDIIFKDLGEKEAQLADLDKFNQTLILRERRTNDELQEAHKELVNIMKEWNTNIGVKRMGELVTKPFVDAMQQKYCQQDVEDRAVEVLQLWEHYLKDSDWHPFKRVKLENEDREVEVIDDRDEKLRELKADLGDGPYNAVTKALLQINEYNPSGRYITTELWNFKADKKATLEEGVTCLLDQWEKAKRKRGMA
In words: two-hybrid; pGADT7 and pGBKT7 constructs co-transformed into yeast strain PJ694a; spot assay on SD-trp-leu-his with 5 mM to 20 mM 3-AT; HIS reporter.

Assay [3] addresses T3, IDP1, yeast two-hybrid fusion (Arabidopsis thaliana) (UniProt Q9S9P3).
T3 sequence: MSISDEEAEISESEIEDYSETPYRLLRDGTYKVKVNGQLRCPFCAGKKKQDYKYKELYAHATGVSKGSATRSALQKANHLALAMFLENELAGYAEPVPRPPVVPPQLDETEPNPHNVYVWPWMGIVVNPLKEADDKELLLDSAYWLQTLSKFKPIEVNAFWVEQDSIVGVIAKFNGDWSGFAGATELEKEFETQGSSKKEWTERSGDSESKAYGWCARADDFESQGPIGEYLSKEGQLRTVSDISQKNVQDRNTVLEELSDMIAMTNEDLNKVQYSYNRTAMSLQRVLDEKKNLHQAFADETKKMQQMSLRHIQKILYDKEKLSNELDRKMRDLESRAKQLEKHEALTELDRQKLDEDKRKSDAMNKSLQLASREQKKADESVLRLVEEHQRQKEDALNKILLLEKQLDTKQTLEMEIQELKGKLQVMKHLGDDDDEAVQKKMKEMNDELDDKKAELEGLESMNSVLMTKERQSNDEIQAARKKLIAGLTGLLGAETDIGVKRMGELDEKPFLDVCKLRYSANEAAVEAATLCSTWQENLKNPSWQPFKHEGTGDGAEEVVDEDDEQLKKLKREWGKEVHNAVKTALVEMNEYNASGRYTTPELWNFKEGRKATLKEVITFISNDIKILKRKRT
The description is as above.

The target of assay [4] is T4, IDN2W616A, yeast two-hybrid bait (Arabidopsis thaliana) (UniProt Q8VZ79).
T4 sequence: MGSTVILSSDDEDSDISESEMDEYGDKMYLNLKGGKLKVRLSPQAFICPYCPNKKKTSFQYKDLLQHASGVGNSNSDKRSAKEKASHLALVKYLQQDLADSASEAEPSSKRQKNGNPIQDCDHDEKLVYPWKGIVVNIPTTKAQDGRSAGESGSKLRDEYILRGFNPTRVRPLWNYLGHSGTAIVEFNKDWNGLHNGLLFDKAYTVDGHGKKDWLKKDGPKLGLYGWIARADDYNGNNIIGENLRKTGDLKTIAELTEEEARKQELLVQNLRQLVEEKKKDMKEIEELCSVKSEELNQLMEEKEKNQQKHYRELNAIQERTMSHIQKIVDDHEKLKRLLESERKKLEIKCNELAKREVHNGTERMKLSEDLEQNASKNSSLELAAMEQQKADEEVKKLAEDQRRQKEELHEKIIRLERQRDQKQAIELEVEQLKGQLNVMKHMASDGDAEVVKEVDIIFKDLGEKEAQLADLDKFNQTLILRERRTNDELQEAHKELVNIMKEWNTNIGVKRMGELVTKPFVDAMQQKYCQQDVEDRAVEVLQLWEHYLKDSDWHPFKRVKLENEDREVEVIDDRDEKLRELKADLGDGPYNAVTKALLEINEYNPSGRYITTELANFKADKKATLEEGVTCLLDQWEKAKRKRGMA
The assay is described as above.

Assay [5] deals with T5, IDP2, yeast two-hybrid fusion (Arabidopsis thaliana) (UniProt F4JH53).
T5 sequence: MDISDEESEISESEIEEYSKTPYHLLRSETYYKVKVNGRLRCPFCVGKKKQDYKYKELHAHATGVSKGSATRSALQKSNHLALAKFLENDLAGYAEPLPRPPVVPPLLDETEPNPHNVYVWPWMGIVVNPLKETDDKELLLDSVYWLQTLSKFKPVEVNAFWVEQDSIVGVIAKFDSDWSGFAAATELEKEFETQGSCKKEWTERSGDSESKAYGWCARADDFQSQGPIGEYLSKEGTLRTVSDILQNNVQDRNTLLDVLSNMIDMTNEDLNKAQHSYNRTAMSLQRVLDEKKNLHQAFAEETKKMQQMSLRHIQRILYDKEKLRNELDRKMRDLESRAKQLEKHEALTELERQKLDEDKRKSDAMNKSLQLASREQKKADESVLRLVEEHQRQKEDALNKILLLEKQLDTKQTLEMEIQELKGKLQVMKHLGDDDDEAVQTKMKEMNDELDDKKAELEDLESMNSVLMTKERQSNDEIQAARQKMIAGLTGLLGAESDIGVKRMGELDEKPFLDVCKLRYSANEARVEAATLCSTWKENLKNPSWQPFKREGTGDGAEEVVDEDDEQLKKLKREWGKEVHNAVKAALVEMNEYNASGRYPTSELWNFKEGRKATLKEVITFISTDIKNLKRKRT
Described as above.

The target of assay [6] is T6, IDN2, yeast two-hybrid fusion (Arabidopsis thaliana) (UniProt Q8VZ79).
T6 sequence: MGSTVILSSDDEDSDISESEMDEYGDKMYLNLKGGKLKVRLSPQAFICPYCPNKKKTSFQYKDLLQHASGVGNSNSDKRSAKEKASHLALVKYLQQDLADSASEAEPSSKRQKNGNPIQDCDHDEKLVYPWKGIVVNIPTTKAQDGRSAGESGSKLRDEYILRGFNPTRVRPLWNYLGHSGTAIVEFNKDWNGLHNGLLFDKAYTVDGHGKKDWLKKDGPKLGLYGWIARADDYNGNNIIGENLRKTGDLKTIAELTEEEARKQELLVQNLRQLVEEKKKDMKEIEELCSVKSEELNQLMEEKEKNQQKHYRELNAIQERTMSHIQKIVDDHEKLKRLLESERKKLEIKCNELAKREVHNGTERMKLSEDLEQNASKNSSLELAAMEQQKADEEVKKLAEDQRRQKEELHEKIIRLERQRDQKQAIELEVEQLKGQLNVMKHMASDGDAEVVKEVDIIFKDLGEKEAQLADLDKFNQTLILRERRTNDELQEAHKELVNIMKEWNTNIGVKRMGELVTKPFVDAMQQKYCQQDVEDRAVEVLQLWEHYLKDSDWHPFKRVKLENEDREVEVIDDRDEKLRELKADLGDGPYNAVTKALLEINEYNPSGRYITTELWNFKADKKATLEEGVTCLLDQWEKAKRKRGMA
The assay is described as above.

For the molecule “DMS3 (… IN MERISTEM … 3), endogenous (from UniProt Q94A79 1-420)”, the binding result in assay [1] is listed as “no binding”.

B1: IDN2, yeast two-hybrid fusion (protein, UniProt Q8VZ79 1-647)
chain: MGSTVILSSDDEDSDISESEMDEYGDKMYLNLKGGKLKVRLSPQAFICPYCPNKKKTSFQYKDLLQHASGVGNSNSDKRSAKEKASHLALVKYLQQDLADSASEAEPSSKRQKNGNPIQDCDHDEKLVYPWKGIVVNIPTTKAQDGRSAGESGSKLRDEYILRGFNPTRVRPLWNYLGHSGTAIVEFNKDWNGLHNGLLFDKAYTVDGHGKKDWLKKDGPKLGLYGWIARADDYNGNNIIGENLRKTGDLKTIAELTEEEARKQELLVQNLRQLVEEKKKDMKEIEELCSVKSEELNQLMEEKEKNQQKHYRELNAIQERTMSHIQKIVDDHEKLKRLLESERKKLEIKCNELAKREVHNGTERMKLSEDLEQNASKNSSLELAAMEQQKADEEVKKLAEDQRRQKEELHEKIIRLERQRDQKQAIELEVEQLKGQLNVMKHMASDGDAEVVKEVDIIFKDLGEKEAQLADLDKFNQTLILRERRTNDELQEAHKELVNIMKEWNTNIGVKRMGELVTKPFVDAMQQKYCQQDVEDRAVEVLQLWEHYLKDSDWHPFKRVKLENEDREVEVIDDRDEKLRELKADLGDGPYNAVTKALLEINEYNPSGRYITTELWNFKADKKATLEEGVTCLLDQWEKAKRKRGMA
For B1, the binding result in assay [2], in assay [3], in assay [4], in assay [5] and in assay [6] was “binds” throughout.

B2: IDP2, yeast two-hybrid fusion (protein, UniProt F4JH53 1-635)
chain: MDISDEESEISESEIEEYSKTPYHLLRSETYYKVKVNGRLRCPFCVGKKKQDYKYKELHAHATGVSKGSATRSALQKSNHLALAKFLENDLAGYAEPLPRPPVVPPLLDETEPNPHNVYVWPWMGIVVNPLKETDDKELLLDSVYWLQTLSKFKPVEVNAFWVEQDSIVGVIAKFDSDWSGFAAATELEKEFETQGSCKKEWTERSGDSESKAYGWCARADDFQSQGPIGEYLSKEGTLRTVSDILQNNVQDRNTLLDVLSNMIDMTNEDLNKAQHSYNRTAMSLQRVLDEKKNLHQAFAEETKKMQQMSLRHIQRILYDKEKLRNELDRKMRDLESRAKQLEKHEALTELERQKLDEDKRKSDAMNKSLQLASREQKKADESVLRLVEEHQRQKEDALNKILLLEKQLDTKQTLEMEIQELKGKLQVMKHLGDDDDEAVQTKMKEMNDELDDKKAELEDLESMNSVLMTKERQSNDEIQAARQKMIAGLTGLLGAESDIGVKRMGELDEKPFLDVCKLRYSANEARVEAATLCSTWKENLKNPSWQPFKREGTGDGAEEVVDEDDEQLKKLKREWGKEVHNAVKAALVEMNEYNASGRYPTSELWNFKEGRKATLKEVITFISTDIKNLKRKRT
As for B2, the binding result is recorded as “binds” in assay [4], “no binding” in assay [5] and “binds” in assay [6].

B3: IDP1, yeast two-hybrid fusion (protein, UniProt Q9S9P3 1-634)
chain: MSISDEEAEISESEIEDYSETPYRLLRDGTYKVKVNGQLRCPFCAGKKKQDYKYKELYAHATGVSKGSATRSALQKANHLALAMFLENELAGYAEPVPRPPVVPPQLDETEPNPHNVYVWPWMGIVVNPLKEADDKELLLDSAYWLQTLSKFKPIEVNAFWVEQDSIVGVIAKFNGDWSGFAGATELEKEFETQGSSKKEWTERSGDSESKAYGWCARADDFESQGPIGEYLSKEGQLRTVSDISQKNVQDRNTVLEELSDMIAMTNEDLNKVQYSYNRTAMSLQRVLDEKKNLHQAFADETKKMQQMSLRHIQKILYDKEKLSNELDRKMRDLESRAKQLEKHEALTELDRQKLDEDKRKSDAMNKSLQLASREQKKADESVLRLVEEHQRQKEDALNKILLLEKQLDTKQTLEMEIQELKGKLQVMKHLGDDDDEAVQKKMKEMNDELDDKKAELEGLESMNSVLMTKERQSNDEIQAARKKLIAGLTGLLGAETDIGVKRMGELDEKPFLDVCKLRYSANEAAVEAATLCSTWQENLKNPSWQPFKHEGTGDGAEEVVDEDDEQLKKLKREWGKEVHNAVKTALVEMNEYNASGRYTTPELWNFKEGRKATLKEVITFISNDIKILKRKRT
For B3, the binding entry in assay [3] is listed as “no binding”; in assay [4], “binds”; in assay [5], “no binding”; in assay [6], “binds”.
